This is an account of results in the antibiotic and cytotoxicity screens of Wong et al. (2023).

Some of the results follow.

For the test, the system named is HepG2. As to the kind of experiment: cytotoxicity call (relative viability < 0.9). The settings on record: 10 µM.
With `Clc1ccc2c(c1)C(N1CCNCC1)=Nc1ccccc1O2`, the cytotoxicity call was “active”.

As to `O=C(CN1CCOCC1)NCC[C@@H]1CC[C@H](NC(=O)Nc2ccccc2)[C@H](CO)O1`, the cytotoxicity call is “inactive”.

With `Cc1ccc(S(=O)(=O)Nc2ccc3c(c2)C(=O)N([C@@H](C)CO)C[C@@H](C)[C@H](CN(C)S(=O)(=O)c2ccc(C)cc2)OCCCC[C@@H](C)O3)cc1`, the cytotoxicity call is “active”.

Consider `COc1ccc(-c2cnc3c(c2)C(=O)N([C@H](C)CO)C[C@H](C)[C@H](CN(C)S(=O)(=O)c2cccc(F)c2)O3)cc1`, for which the cytotoxicity call was “inactive”.

As to `CC(C)NC(=O)N(C)C[C@H]1Oc2c(NC(=O)NC3CCCCC3)cccc2C(=O)N([C@@H](C)CO)C[C@H]1C`, the cytotoxicity call is “inactive”.

As to `C[C@@H]1CN([C@H](C)CO)C(=O)c2cc(NC(=O)NC3CCCCC3)ccc2O[C@@H](C)CCCCO[C@H]1CN(C)Cc1ccc2c(c1)OCO2`, the cytotoxicity call is “inactive”.

For the molecule `COc1ccc(NC(=O)N(C)C[C@H]2Oc3ncc(C#C[C@@H](C)O)cc3C(=O)N([C@H](C)CO)C[C@@H]2C)cc1`, the cytotoxicity call is “inactive”.

On to `C[C@@H]1CN([C@H](C)CO)C(=O)c2cc(NS(=O)(=O)c3ccc(Cl)cc3)ccc2O[C@@H](C)CCCCO[C@@H]1CN(C)C(=O)C1CCCCC1`, for which the cytotoxicity call was “active”.

On to `C=CCOC(=O)[C@H]1[C@@H]2C(=O)O[C@@H](c3ccccc3)[C@@H](c3ccccc3)N2[C@@H](c2ccc(OCCOC(=O)[C@H]3C[C@H]4C(=O)N[C@@H](CCCC[N+](C)(C)C)C(=O)N4[C@H]3c3cccc(OCCO)c3)cc2)[C@]12C(=O)Nc1ccc(I)cc12`, for which the cytotoxicity call is “inactive”.

Turning to `Cc1noc(C)c1NC(=O)Nc1ccc2c(c1)CC(=O)N([C@H](C)CO)C[C@@H](C)[C@H](CN(C)CC1CC1)O2`, the cytotoxicity call was “inactive”.

`C[C@@H]1CN([C@@H](C)CO)C(=O)c2cccc(NS(C)(=O)=O)c2O[C@H]1CN(C)S(=O)(=O)c1cccs1`: the cytotoxicity call is “inactive”.

Take `Cc1noc(C)c1NC(=O)N(C)C[C@@H]1Oc2ccc(NC(=O)C3CC3)cc2CC(=O)N([C@H](C)CO)C[C@@H]1C`: the cytotoxicity call was “inactive”.

Turning to `CNC(=O)CN1CC[C@]12CCN(C(=O)c1ccn(C)n1)C2`, the cytotoxicity call was “inactive”.

For the molecule `CCC(C=CC(C)C1CCC2C3CCC4=CC(=O)CCC4(C)C3CCC12C)C(C)C` (stereo not given), the cytotoxicity call is “inactive”.

Regarding `C[C@@H]1CN([C@H](C)CO)C(=O)c2cc(NS(=O)(=O)c3ccccc3)ccc2O[C@@H](C)CCCCO[C@H]1CN(C)Cc1ccc(C(=O)O)cc1`, the cytotoxicity call is “inactive”.

For the molecule `C[C@@H]1CN([C@@H](C)CO)S(=O)(=O)c2ccc(-c3ccncc3)cc2O[C@H]1CN(C)C(=O)c1ccc2c(c1)OCO2`, the cytotoxicity call was “inactive”.

For the molecule `COc1ccccc1C#Cc1cnc2c(c1)C(=O)N([C@@H](C)CO)C[C@H](C)[C@H](CN(C)C(=O)CC1CC1)O2`, the cytotoxicity call was “inactive”.

On to `C[C@H](CO)N1C[C@H](C)[C@@H](CN(C)Cc2ccncc2)Oc2ccc(NS(=O)(=O)c3cccs3)cc2C1=O`, for which the cytotoxicity call is “inactive”.

Turning to `C[C@@H](O)C#Cc1ccc2c(c1)O[C@H](CN(C)C(=O)Nc1ccccc1)[C@@H](C)CN([C@@H](C)CO)S2(=O)=O`, the cytotoxicity call was “inactive”.

Take `C[C@H]1CN([C@@H](C)CO)C(=O)Cc2cc(NC(=O)Cc3cn(C)c4ccccc34)ccc2O[C@@H]1CN(C)Cc1ccc(-c2ccccc2)cc1`: the cytotoxicity call was “inactive”.

Consider `COc1ccc(NC(=O)N(C)C[C@@H]2OCCCC[C@H](C)Oc3ccc(NS(=O)(=O)c4ccc(F)cc4)cc3C(=O)N([C@H](C)CO)C[C@@H]2C)cc1`, for which the cytotoxicity call was “inactive”.

Consider `CC(C)CC#Cc1ccc2c(c1)O[C@@H](CN(C)C(=O)Cc1ccccn1)[C@H](C)CN([C@@H](C)CO)S2(=O)=O`, for which the cytotoxicity call is “inactive”.

Take `C[C@@H]1CN([C@@H](C)CO)C(=O)c2c(c3ccccc3n2C)-c2ccccc2CO[C@H]1CN(C)Cc1ccc(C(=O)O)cc1`: the cytotoxicity call was “inactive”.

Regarding `Cc1ccc(S(=O)(=O)Nc2ccc3c(c2)C(=O)N([C@@H](C)CO)C[C@H](C)[C@H](CN(C)S(=O)(=O)c2ccccc2)O3)cc1`, the cytotoxicity call is “inactive”.

As for `Cc1ccc(S(=O)(=O)Nc2ccc3c(c2)C(=O)N([C@H](C)CO)C[C@H](C)[C@@H](CN(C)Cc2ccc(Cl)c(Cl)c2)OCCCC[C@@H](C)O3)cc1`, the cytotoxicity call is “inactive”.

For the molecule `C[C@@H]1CN([C@H](C)CO)C(=O)c2cc(NC(=O)Nc3ccc4c(c3)OCO4)ccc2O[C@@H](C)CCCCO[C@H]1CN(C)Cc1ccc2c(c1)OCO2`, the cytotoxicity call is “inactive”.

For `COc1ccc(S(=O)(=O)Nc2ccc3c(c2)C(=O)N([C@H](C)CO)C[C@@H](C)[C@H](CN(C)C(=O)Nc2ccc(F)cc2)OCCCC[C@H](C)O3)cc1`, the cytotoxicity call is “inactive”.

Consider `Cc1noc(C)c1NC(=O)Nc1ccc2c(c1)C(=O)N([C@H](C)CO)C[C@@H](C)[C@@H](CN(C)S(=O)(=O)c1c(C)noc1C)O2`, for which the cytotoxicity call is “inactive”.

As for `NC(Cc1ccc(O)c(O)c1)C(=O)O` (stereo not given), the cytotoxicity call is “active”.

Turning to `C[C@H]1CN([C@@H](C)CO)C(=O)c2cc(NC(=O)Cc3cn(C)c4ccccc34)ccc2O[C@H]1CN(C)CC1CCCCC1`, the cytotoxicity call is “inactive”.

On to `C[C@@H]1CN([C@H](C)CO)C(=O)Cc2cc(NS(C)(=O)=O)ccc2O[C@@H]1CN(C)C(=O)Nc1ccc2c(c1)OCO2`, for which the cytotoxicity call was “inactive”.

Take `O=S(=O)(NCC[C@H]1CC[C@H](NS(=O)(=O)c2cccc(Cl)c2)[C@H](CO)O1)c1cccc(F)c1`: the cytotoxicity call is “inactive”.

`Cc1ccc(-c2cnc3c(c2)C(=O)N([C@@H](C)CO)C[C@H](C)[C@@H](CN(C)C(=O)Cc2cccnc2)O3)cc1`: the cytotoxicity call was “inactive”.

As to `Cc1noc(C)c1NC(=O)Nc1ccc2c(c1)C(=O)N([C@H](C)CO)C[C@@H](C)[C@@H](CN(C)C(=O)NC(C)C)O2`, the cytotoxicity call is “inactive”.

As for `C[C@@H]1CN([C@H](C)CO)C(=O)c2cc(C#C[C@@H](C)O)cnc2O[C@@H]1CN(C)C(=O)Nc1ccc(C(F)(F)F)cc1`, the cytotoxicity call is “inactive”.

Take `Nc1ncnc2c1ncn2[C@@H]1C=C[C@H](CO)O1`: the cytotoxicity call is “inactive”.

As to `COc1ccc(S(=O)(=O)Nc2ccc3c(c2)CC(=O)N([C@@H](C)CO)C[C@H](C)[C@@H](CN(C)Cc2ccc(C(=O)O)cc2)O3)cc1`, the cytotoxicity call is “inactive”.

Turning to `COc1ccc2c3c(n(c2c1)C)[C@@H](CO)N(C[C@]13CCN(CC1)S(=O)(=O)c1ccccc1)C(=O)c1cccnc1`, the cytotoxicity call is “inactive”.

With `COc1ccc(S(=O)(=O)Nc2ccc3c(c2)C(=O)N([C@@H](C)CO)C[C@H](C)[C@H](CN(C)Cc2ccccc2)OCCCC[C@@H](C)O3)cc1`, the cytotoxicity call was “inactive”.

Turning to `COc1ccc([C@H]2[C@@H](C(N)=O)C2(C#N)C#N)cc1`, the cytotoxicity call is “inactive”.
